One assay concerns the target human pro-myostatin (Homo sapiens, UniProt O14793). The assay can be described thus: Biacore 8k SPR binding affinity, human pro-myostatin. The source says:
(§1) The Biacore™ 8k SPR system was utilized to evaluate the binding affinity of myostatin antibodies to biotinylated human, murine, and cyno pro-myostatin. Biotin CAPture kit and sensor chips (Cytiva) were utilized in these experiments to immobilize the various antigens, followed by flowing a range of concentrations of each of the test antibodies.

A further assay addresses cyno pro-myostatin (Macaca fascicularis, UniProt Q95J86). The assay is described as follows: Biacore 8k SPR binding affinity, cyno pro-myostatin. Further details: species or system cynomolgus monkey.
Source text: as §1
For orientation: SPR reads the build-up and loss of mass on a sensor chip optically.

Another assay deals with murine pro-myostatin (Mus musculus, UniProt O08689). The assay is described as follows: Biacore 8k SPR binding affinity, murine pro-myostatin.
Source text: as §1

Assay [1] is described as follows: dexamethasone-induced muscle atrophy mouse model. Conditions: dexamethasone treated mice, antibody 3 mg/kg/day; FIG. 6A, 9A. It is filed as in vivo. The source says: To evaluate in vivo efficacy of the novel myostatin-selective inhibitors disclosed herein, the ability of the antibodies to preserve lean muscle mass was examined in a dexamethasone-induced atrophy mouse model. An excess of glucocorticoids directly stimulates myostatin production via interactions with a glucocorticoid response element in the myostatin promoter, thus inducing loss of muscle mass. As shown herein, antibodies of the disclosure prevented glucocorticoid-induced muscle atrophy.
C57BL6 male mice (n=8) at 13-14 weeks of age were given normal drinking water or water containing dexamethasone at a concentration of 2.5 mg/kg (17.5 grams dexamethasone per liter of drinking water) to induce atrophy. […] Body weight was measured daily. Body composition was measured by qNMR to determine lean mass pre-dosing, at day 7, and at day 14. After 14 days of dexamethasone exposure, the animals were terminated, and body weight and gastrocnemius weight were measured. […]
C57BL6 male mice (n=8) at 13-14 weeks of age were given normal drinking water or water containing dexamethasone at a concentration of 2.5 mg/kg to induce atrophy. […] Muscle mass at days −1, 6 and 13 was measured using qNMR. At the end of the study (day 14), serum from each animal was collected and changes in body weight, body composition (qNMR), left and right gastrocnemius weight, and left and right quadriceps weight were measured. […]

B1: Ab127: anti-pro/latent myostatin antibody; CDR sequences in Table 2d (antibody)
heavy: EVQLVESGGGLVQPGGSLRLSCTASGFTFGSYPMDWVRQAPGKGLEWVSYISGRGDVTYYADSVKGRFTISRDNAKNTLYLQMNSLRAEDTAVYYCAKVQSPSELLWFGELLPVDYWGQGTLVTVSSASTKGPSVFPLAPCSRSTSESTAALGCLVKDYFPEPVTVSWNSGALTSGVHTFPAVLQSSGLYSLSSVVTVPSSSLGTKTYTCNVDHKPSNTKVDKRV[human IgG4 Fc with S228P (EU numbers) left out]
light: DIQMTQSPSSLSASVGDRVTITCQASQVIKTWLNWYQQKPGKAPKLLIYDASNLQRGVPSRFSGSGSGTDFTFTISSLQPEDIATYYCQQSASTPITFGGGTKVEIKRTVAAPSVFIFPPSDEQLKSGTASVVCLLNNFYPREAKVQWKVDNALQSGNSQESVTEQDSKDSTYSLSSTLTLSKADYEKHKVYACEVTHQGLSSPVTKSFNRGEC
With B1, the “Ka” value with human pro-myostatin was 813000 M⁻¹ s⁻¹; with cyno pro-myostatin, 821000 M⁻¹ s⁻¹; with murine pro-myostatin, 815000 M⁻¹ s⁻¹. The “Kd (1/s)” value was 0.000213 s⁻¹ with human pro-myostatin, 0.000269 s⁻¹ with cyno pro-myostatin and 0.000265 s⁻¹ with murine pro-myostatin.

B2: Ab121: anti-pro/latent myostatin antibody; CDR sequences in Table 2d (antibody)
heavy: QVTLRESGPALVKPTQTLTLTCTVSGFSFSTSGMVVNWIRQPPGKALEWLAMIDWDADNIVYNSALKSRLTISKDTSKNQVVLTMTNMDPVDTATYYCAKDTGSGWFDAFDIWGQGTMVTVSSASTKGPSVFPLAPCSRSTSESTAALGCLVKDYFPEPVTVSWNSGALTSGVHTFPAVLQSSGLYSLSSVVTVPSSSLGTKTYTCNVDHKPSNTKVDKRV[human IgG4 Fc with S228P (EU numbers) left out]
light: DIVMTQSPDSLAVSLGERATINCKSSQSVLYSSTNQNFLAWYQQKPGQPPKLLIYQASTLQNGVPDRFSGSGSGTDFTLTISSLQAEDVAVYYCQQYLTTPYTFGGGTKVEIKRTVAAPSVFIFPPSDEQLKSGTASVVCLLNNFYPREAKVQWKVDNALQSGNSQESVTEQDSKDSTYSLSSTLTLSKADYEKHKVYACEVTHQGLSSPVTKSFNRGEC
Regarding B2, the “Ka” value in the assay with human pro-myostatin came to 3.16e+06 M⁻¹ s⁻¹; with cyno pro-myostatin it was 3.45e+06 M⁻¹ s⁻¹; in the assay with murine pro-myostatin, 3.24e+06 M⁻¹ s⁻¹. Moreover, the “Kd (1/s)” value in the assay with human pro-myostatin turned out to be 0.000318 s⁻¹; in the assay with cyno pro-myostatin it was 0.000365 s⁻¹; in the assay with murine pro-myostatin, 0.000608 s⁻¹. Moreover, the “maintenance of body weight (percent change from baseline)” value in assay [1] was “to a greater extent than Ab2”.

B3: Ab128: anti-pro/latent myostatin antibody; CDR sequences in Table 2d (antibody)
heavy: EVQLVESGGGLVQPGGSLRLSCTASGFTLSSYSMDWVRQAPGKGLEWVSYITGSGDTTYYADSVKGRFTISRDNAKNTLYLQMNSLRAEDTAVYYCARGFGWISGWAEDYFDYWGQGTLVTVSSASTKGPSVFPLAPCSRSTSESTAALGCLVKDYFPEPVTVSWNSGALTSGVHTFPAVLQSSGLYSLSSVVTVPSSSLGTKTYTCNVDHKPSNTKVDKRV[human IgG4 Fc with S228P (EU numbers) left out]
light: DIQMTQSPSSLSASVGDRVTITCQASQSVYSYLNWYQQKPGKAPKLLIYGASRLEGGVPSRFSGSGSGTDFTFTISSLQPEDIATYYCQQHSTDQRTFGGGTKVEIKRTVAAPSVFIFPPSDEQLKSGTASVVCLLNNFYPREAKVQWKVDNALQSGNSQESVTEQDSKDSTYSLSSTLTLSKADYEKHKVYACEVTHQGLSSPVTKSFNRGEC
As for B3, the “Ka” value with human pro-myostatin was 1.27e+06 M⁻¹ s⁻¹; in the assay with cyno pro-myostatin, 905000 M⁻¹ s⁻¹; with murine pro-myostatin, 914000 M⁻¹ s⁻¹. Also, the results for the “Kd (1/s)” value with human pro-myostatin, with cyno pro-myostatin and with murine pro-myostatin were 0.000463 s⁻¹, 0.000736 s⁻¹ and 0.000655 s⁻¹, respectively.

(Values after patent publication US20260209325A1, “SELECTIVE AND POTENT INHIBITORY ANTIBODIES OF MYOSTATIN ACTIVATION” (SCHOLAR ROCK, INC., priority 2022, published 2026).)
